Test results taken from PubChem BioAssay AID1963576 (National Center for Advancing Translational Sciences (NCATS), 2024).
Hit rate of the full screen: of about 46,000 compounds, about 60 (0.1%) were called active. Not shown: some 3% with an inconclusive outcome. The call rests on the fitted dose curve; in most records, active means well fitted inhibition curve with a large enough effect; inconclusive means small, poorly fitted or top-dose-only effect; inactive means no such curve, though single readings can be large or run the other way. The list shows a part of the results.

assay: Primary qHTS assay for Inhibitors of ovarian cancer metastasis using an organotypic tumor microenvironment (TME) model.; further: nearly all actives have a fitted effect of over 65% in size;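 on activity change, negative = inhibition: plate controls were DMSO wells for no effect and tomatine positive control wells for full effect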; settings: SKOV3ip1-GFP adhesion/invasion on 3D omental model, fluorescence; series mostly up to 45.8 µM; activity change, negative = inhibition: at the top concentration
Procedure, shortened: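 A 3D layer of primary human omental fibroblasts, mesothelial cells, fibronectin and collagen I, grown 48 hr, received SKOV3ip1-GFP cells in serum-free medium plus compounds at 0.36-46 umol/L. After 2 hr RT and 16 hr 37 C, fixed adherent GFP cells were counted; normalized to DMSO and tomatine.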

| Structure (SMILES) | activity change, negative = inhibition | outcome |
| --- | --- | --- |
| COc1ccccc1CNC(=O)CCc1c(C)c2cc3c(C)coc3cc2oc1=O | inactive: 2.82% |  |
| O=c1ccc(-c2ccccc2)nn1Cc1c(F)cccc1Cl | inactive: -7.38% |  |
| COc1ccc(-c2nc(CNC(=O)Nc3ccccc3)c(C)o2)c(OC)c1 | inactive: -8.24% |  |
| Cc1ccc(OCC(=O)NCC2(N3CCN(C)CC3)CCCCC2)cc1 | inactive: 3.09% |  |
| COc1ccc(Nc2ncc(C(=O)Nc3cccc(Cl)c3)c3ccccc23)cc1 |  | inactive |
| COc1ccccc1Nc1nc(C)nc(N)c1S(=O)(=O)c1ccccc1 | inactive: 2.18% |  |
| Cc1ccc(C)c(NC(=O)c2cc(S(=O)(=O)NCc3ccccc3)ccc2F)c1 | inactive: -3.68% |  |
| CCN(CC)S(=O)(=O)c1ccc2c(c1)nc(CN(C)C(=O)Nc1ccc(C)c(Cl)c1)n2C |  | inactive |
| Cc1nc2c3cccnc3nn2c(C)c1CCC(=O)NCc1ccccc1 | inactive: -2.96% |  |
| Cc1ccc(O)c(NC(=O)c2cc(-c3ccc(F)cc3)no2)c1 | inactive: 4.22% |  |
| COc1ccc(CNC(=O)c2ccc(Cn3c(=O)c4cccn4c4cccnc43)cc2)c(OC)c1 | inactive: -6.75% |  |
| COc1ccc(-n2nc3c(N4CCC(C(=O)N5CCC(C)CC5)CC4)nnc(C)c3c2C)cc1 | inactive: -17.9% |  |
| CC(C)CCNC(=O)c1cnc2sc(N3CCCCCC3)nn2c1=O |  | inactive |
| CCOCc1cc(CN2CCN(c3cccc(C(F)(F)F)c3)CC2)c(O)c2ncccc12 | inactive: -13.1% |  |
| COc1c(OCCCN2CCOCC2)ccc2c3n(c(=NC(=O)c4cnc(N)nc4)nc12)CCN3 | inactive: -4.01% [at 23.2 µM] |  |
| COc1cccc(-n2c(SCc3cccc(C)c3)nc3c([nH]c4ccccc43)c2=O)c1 | inactive: -10% |  |
| O=C(C1CCC1)N1CCCc2cc(S(=O)(=O)N3CCN(c4cccc(Cl)c4)CC3)ccc21 | inactive: 3.03% |  |
| CCOc1ccc(-n2ccnc2SCC(=O)Nc2cc(C)ccc2C)cc1 | inactive: -1.32% |  |
| CCOc1ccccc1NC(=O)COC(=O)CC(C)(C)CC1=NS(=O)(=O)c2ccccc2N1 | inactive: -2.47% |  |
| Cc1onc(-c2ccccc2Cl)c1C(=O)Oc1ccc(Cl)cc1Cl | inactive: 25.1% |  |
| Cc1ccc(C)c(NC(=O)C(=O)NCCCN2CCOCC2)c1 | inactive: 1.48% |  |
| CCOc1ccc(CCNC(=O)c2cnc3c(-c4ccc(F)cc4)c(C)nn3c2C)cc1 | inactive: -22.2% |  |
| O=C(NCCCN1CCN(c2ccccc2)CC1)c1sc2ncccc2c1-n1cccc1 |  | inactive |
| O=C(NCCc1nc2ccccc2n1Cc1ccccc1F)c1ccc(F)cc1 |  | inactive |
| COc1ccc(C(=O)c2cn(Cc3ccccc3)c3ccccc3c2=O)cc1OC | inactive: -3.11% |  |

| Structure (SMILES) | activity change, negative = inhibition | outcome |
| --- | --- | --- |
| CN1C(C(=O)Nc2cccc(O)c2)=CC(c2cccs2)=NS1(=O)=O | inactive: -12.9% |  |
| Nc1ncc(S(=O)(=O)NCc2ccccc2)cn1 | inactive: -11.2% |  |
| COc1cc(S(=O)(=O)NCCc2c(C)[nH]c3ccc(C)cc23)ccc1Br | inactive: 7.89% |  |
| COc1ccc(N(C(=O)c2ccccc2C)S(=O)(=O)c2ccc(Cl)cc2)cc1 | inactive: -9.1% |  |
| Cc1c(Cl)cccc1NC(=O)CCS(=O)(=O)c1ccc2c(c1)CC(C)N2C(=O)C1CC1 (configuration not stated) |  | inactive |
| Cc1cccc(N2CCN(C(=O)C3CCN(C(=O)c4cc5sccc5n4C)CC3)CC2C)c1 (configuration not stated) |  | inactive |
| CCOc1ccc2nc(Cl)c(C3CC(c4ccc(C)cc4)=NN3C(=O)CCC(=O)O)cc2c1 (configuration not stated) |  | inactive |
| COc1ccc(CN(C)c2ccc(-c3nc(-c4ccc(OC)c(OC)c4)no3)cc2[N+](=O)[O-])cc1 |  | inactive |
| CCOc1ccc(CCNC(=O)Cn2c(-c3cccs3)cc3ccccc32)cc1 | inactive: 3.03% |  |
| CCOc1ccc(NC(=O)CN(Cc2ccccc2)S(=O)(=O)c2ccc3nc(C)sc3c2)cc1 | inactive: -19.1% |  |
| CN1C(=O)c2cccc3c(S(=O)(=O)Nc4cccc(C(=O)O)c4)ccc1c23 | inactive: 2.11% |  |
| COc1cccc(-c2nnc(SCC(=O)N(C)C3CCCCC3)o2)c1 |  | inactive |
| CN1CCc2nc3sc(C(=O)c4ccc(F)cc4)c(N)c3cc2C1 | inactive: -8.87% |  |
| CCOc1ccccc1CNCc1c(C(=O)O)c(C)n(Cc2ccc(C)cc2)c1C | inactive: 7.06% |  |
| CCC(C)S(=O)(=O)c1oc(-c2cccs2)nc1S(=O)(=O)c1ccccc1 (configuration not stated) | inactive: -19.5% |  |
| COc1cn(CC(=O)Nc2cc(C)cc(C)c2)c(CN2CCCCC2)cc1=O | inactive: -3.45% |  |
| CCOc1ccc(N2CC(NC(=O)c3ccc(Cl)cc3)CC2=O)cc1 (configuration not stated) | inactive: -2.94% |  |
| Cc1cccc(NC(=O)c2oc3ccccc3c2NC(=O)c2cc(=O)c3ccccc3o2)c1 | inactive: 0.634% |  |
| Cc1ccc2c(c1)c1c(c(=O)n(Cc3ccccc3)c(=O)n1Cc1ccccc1F)n2C |  | inactive |
| CCN(CC)S(=O)(=O)c1ccc(OC)c(NC(=O)c2sc3ccccc3c2Cl)c1 | inactive: -1.04% |  |
| CN(c1ccc(F)cc1)S(=O)(=O)N1CCCC(C(=O)NCc2ccccc2Cl)C1 (configuration not stated) | inactive: -2.38% |  |
| CNC(=O)CN1C(=O)COc2ccc(S(=O)(=O)N3CCCCCC3)cc21 |  | inactive |
| Nc1ccc(C(=O)c2cc3c(ccc4ccccc43)[nH]2)cc1 | inactive: -10.1% |  |
| CCOC(=O)N1CCc2c(sc3c2c(=O)n(Cc2ccccc2)c(=O)n3CC(=O)Nc2ccc(F)cc2)C1 | inactive: -6.54% |  |
| CCCCN(C)C(=O)c1ccc2c(=O)n3nc(Nc4cc(C)ccc4C)sc3nc2c1 |  | inactive |

| Structure (SMILES) | activity change, negative = inhibition | outcome |
| --- | --- | --- |
| O=S1(=O)c2ccccc2N(Cc2ccccc2F)c2ccccc21 | inactive: 2.93% |  |
| Cc1ccccc1Cn1c(CN2CCC(C(=O)NCc3ccc(Cl)cc3)CC2)cc2ccccc21 | inactive: 8.72% |  |
| Cc1c(Cl)cccc1NC(=O)C(=O)NCCc1csc(-c2ccc(C(F)(F)F)cc2)n1 |  | inactive |
| CCN1CCc2c(sc(NC(=O)c3ccc(S(=O)(=O)N4CCCC(C)C4)cc3)c2C(=O)OC)C1 (configuration not stated) | inactive: -3.7% |  |
| COc1ccc(C(=O)Nc2ccc3oc(-c4cccc5c(Br)cccc45)nc3c2)cc1 | inactive: -0.237% |  |
| O=C(CNC(=O)c1ccc(F)cc1)OCc1cc(=O)n2ccsc2n1 |  | inactive |
| CCOc1ccc(NS(=O)(=O)c2ccc3c(c2)NC(=O)CCS3)cc1 | inactive: 2.19% |  |
| Cc1cc(C)c(OCC(=O)N(Cc2ccc(N(C)C)cc2)Cc2ccco2)c(C)c1 |  | inactive |
| O=C(NCc1ccc2c(c1)OCO2)c1ccc2c(c1)N(Cc1c(F)cccc1Cl)C(=O)c1ccccc1S2 | inactive: 2.64% |  |
| COc1ccc(CCNC(=O)c2ccc(-n3c(C)cc4c3CCC(C)C4)cc2)cc1OC (configuration not stated) | inactive: 1.51% |  |
| Cc1cc(C)cc(NC(=O)COc2cccc3c(=O)n(C)ccc23)c1 |  | inactive |
| Cc1ccc(-c2csc(-c3c(N)c(C(=O)c4ccc5c(c4)OCO5)n4ccccc34)n2)cc1 | inactive: -4.78% |  |
| COc1ccc(-n2c(-c3cccc(F)c3)nc3c(cnn3-c3ccc(C)cc3)c2=O)cc1 | inactive: -2.83% |  |
| Cc1ccc(Cn2nc3n(c2=O)-c2cc(Cl)ccc2OC3)cc1 |  | inactive |
| Cc1ccc(-c2cn3nc(N4CCCC(C(=O)NCc5ccccc5F)C4)sc3n2)cc1 (configuration not stated) | inactive: -9.87% |  |
| COc1ccc(C(=O)c2cn(CC(=O)Nc3cc(OC)cc(OC)c3)c3ccc(OC)cc3c2=O)cc1 | inactive: -6.5% |  |
| COC(=O)c1ccccc1NC(=O)Cn1c(=O)n(CCC(=O)NCc2ccc3c(c2)OCO3)c(=O)c2ccccc21 |  | inactive |
| Cn1ccnc1SCC(=O)Nc1cccc(Br)c1 |  | inactive |
| COc1cccc(N2C(=O)C(CC(=O)Nc3cccc(F)c3)N(C3CCCC3)C2=O)c1 (configuration not stated) | inactive: 0.716% |  |
| COc1ccc(-c2nc3ccccc3o2)cc1NC(=O)Cc1ccc(Cl)cc1 |  | inactive |
| Cc1cccc(N(C)C(=O)Cn2c(=O)oc3cc(S(=O)(=O)N4CCCCC4)ccc32)c1 | inactive: 2.87% |  |
| CCOC(=O)c1c(S(=O)(=O)N2CCC(C(=O)NCc3cccc(OC)c3)CC2)c(C)n(C)c1C | inactive: 4.19% |  |
| CCN(c1ccc(OC)cc1)S(=O)(=O)c1ccc2[nH]c3c(c2c1)CCCCC3 | inactive: -0.291% |  |
| Clc1ccc(C(Cn2ccnc2)OCc2c(Cl)cccc2Cl)c(Cl)c1 (configuration not stated) | inactive: -3.95% |  |
| CCn1c(SCC(=O)Nc2cc(C)ccc2F)nnc1-c1ccccc1O |  | inactive |

| Structure (SMILES) | activity change, negative = inhibition | outcome |
| --- | --- | --- |
| COc1ccc(N2CC(NC(=O)C3CCCCC3)CC2=O)cc1 (configuration not stated) |  | inactive |
| COc1ccc(C2CC(=O)c3cc(-c4nc(-c5cccc([N+](=O)[O-])c5)cs4)c(=O)n(-c4ccccc4N)c3C2)cc1 (configuration not stated) | inactive: 2.47% |  |
| Cc1ccc(CNC(=O)c2ccc3c(c2)CCN3S(=O)(=O)c2ccc(Br)cc2)cc1 | inactive: 9.6% |  |
| NC(=O)c1cc(S(=O)(=O)NCc2cccc(Br)c2)cs1 | inactive: -9.02% |  |
| Cc1nc2ccn(Cc3ccco3)c(=O)c2cc1C(=O)NCc1ccc(Cl)cc1 | inactive: -6.92% |  |
| COC(=O)c1ccc(NC(=O)Cn2c(=O)oc3ccccc32)cc1 | inactive: -6.81% |  |
| CCCOc1ccc(C2c3c(oc4ccccc4c3=O)C(=O)N2c2nnc(C(C)C)s2)cc1 (configuration not stated) | inactive: 6.51% |  |
| COc1ccccc1CNC(=O)c1ccc(N2CCCC2)c(NC(=O)NCc2ccc(C)cc2)c1 | inactive: -17.2% |  |
| Cc1ccccc1CNC(=O)Cn1c(=O)c2cccn2c2cccnc21 |  | inactive |
| COc1ccc(CC(=O)N2CC(=O)Nc3ccc(F)cc3C2c2ccccc2)cc1 (configuration not stated) | inactive: 8.88% |  |
| CCOC(=O)CNC(=O)N1CCN(S(=O)(=O)c2ccc3c(ccn3C)c2)CC1 | inactive: -6.84% |  |
| COC(=O)c1ccccc1NC(=O)c1ccc(CN2CC(=O)N3CCCCC3C2=O)cc1 (configuration not stated) | inactive: -3.53% |  |
| COc1ccc(C2=NC(c3ccccc3)=Nc3ccc(C)cc3N2)cc1 | inactive: -5.73% |  |
| CCOC(=O)c1cc(S(=O)(=O)Nc2ccccc2)[nH]n1 |  | inactive |
| CCC(C)NC(=O)c1c2c(nc3ccccc13)C(=O)N(C1CCCCC1)C2 (configuration not stated) | inactive: -1.32% |  |
| CN1CCN(C(=O)c2ccc3c(c2)N(Cc2ccc(F)cc2)C(=O)c2ccccc2S3(=O)=O)CC1 | inactive: 9.19% |  |
| COc1ccc(NC(=O)CSc2nnc(-c3ccncc3)n2-c2ccccc2)cc1 |  | inactive |
| COc1ccccc1N1CCN(CC(O)COc2ccc(Cl)c(C)c2)CC1 (configuration not stated) |  | inactive |
| CCOCCCN(Cc1ccco1)C(=O)c1cc2c(s1)-c1c(C)cccc1OC2 | inactive: -29.8% |  |
| COc1ccc(C(=O)c2cn(CC(=O)Nc3cc(C)ccc3C)c3nc(C)ccc3c2=O)cc1 | inactive: 1.69% |  |
| CC(C)Oc1ccc(CNC(=O)C2=Cc3ccccc3OC2)cc1 | inactive: -1.23% |  |
| CCc1ccc(C2CC(=O)Nc3c2c(=O)n(C)c2ncnn32)cc1 (configuration not stated) | inactive: -14.4% |  |
